Whole data set: some 33,000 sequences, median “E-score (-0.5 to 0.5)” near -0.054, cut for the highest 2% near 0.39. The list shows a part of the results.
Biological target: Ylr278c (UniProt Q05854)
Assay: PBM E-score (8-mer binding enrichment) (E-score (-0.5 to 0.5)); higher = stronger / more preferred TF binding; most listed sequences are background and not binding sites
Conditions: protein concentration: 200 nM; construct: GST-DNA-binding domain
Method in brief: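 Yeast transcription factors, full-length or as DNA-binding domains, were expressed with a GST tag using PURExpress in vitro transcription/translation. At about 100-200 nM they were applied to universal all-10-mer Agilent arrays, double-stranded by primer extension on fresh or once-stripped slides. Fluorescent anti-GST detected bound protein, and masliner normalised the scans. E-scores for ungapped eight-base words, pooled with reverse complements, came from the Universal PBM Analysis Suite.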

Sequence | PBM E-score
AAGGAGCG | -0.106
GCATAGTA | -0.036
AAGACGTG | 0.0106
AGATTGAT | -0.0378
GCCGTCTA | 0.0771
CATGTTGA | -0.0612
CCATGCTA | -0.227
ATCTGTCG | 0.164
ATCCCTTA | -0.0352
TCTTCAAA | -0.152
CACACCTG | -0.196
ATAATGAG | -0.114
GCCTACCA | -0.123
AGGCACGG | 0.104
CTCAGTTC | -0.288
AAACTGAT | -0.0999
AAGTCTTA | -0.159
GTAACAAC | -0.201
GGCGTGCA | 0.014
GCTAACAA | -0.138
GTGCATGA | -0.211
ACCATAGA | 0.00619
CGTCGATC | 0.0378
CTCATCGC | -0.042
CTAACAAA | -0.211

Sequence | PBM E-score
TACACACA | -0.233
AACCAGTA | -0.0509
GAACCGCC | 0.16
TCCCCGGA | 0.435
CTAGTTTC | 0.0814
CGTTCGCC | 0.145
CAGGGGAA | -0.146
CGTAAGGC | -0.161
ACTTGTAG | -0.159
GACTTAGC | -0.0965
ACCTCGGC | 0.332
ACAGTGCC | 0.0507
TCCTCGAA | -0.115
GAAAATTC | 0.191
ATCCGCAC | 0.299
CACAATCA | 0.0681
GGATACAC | 0.103
AGACGCAT | -0.109
CCATAAAG | -0.171
ATCTTGCC | -0.0208
ACTGACTG | -0.255
TAATACTA | -0.0508
AACGGACA | 0.321
CCTAATGC | -0.295
ACGGAGCC | 0.385

Sequence | PBM E-score
AGGCGTAC | -0.209
CTGATAAC | -0.0994
ATCTAAAA | -0.135
AATTTTTC | 0.113
CGCACTCC | 0.215
ACCCGAAT | 0.129
ATTATGCC | 0.115
CAGACATG | -0.153
AGCTACCC | -0.243
CGACCGTC | -0.0706
ACAACCGA | 0.0595
AATTCACT | -0.0951
AGCGCGCG | 0.149
AAACCTCG | 0.0262
ACAGTCCT | -0.337
ATCCTCAC | -0.0428
ATTGAAGA | -0.253
AGTGAGAA | 0.0358
GCTCGCTA | -0.171
AGTACCAT | -0.154
ATAGGAGG | -0.0693
TGGAATAA | -0.0106
CGGTATCC | 0.234
ACCACACT | -0.0239
TTACCCAA | -0.275

Sequence | PBM E-score
CTGAGGGC | -0.251
ATAAATAT | 0.106
TAGTGCGA | -0.086
CCCTCGCG | 0.112
TAGCTTGA | -0.14
GACGAAGA | 0.0107
ATAATTGA | 0.00187
CGTGTAAC | -0.086
ATCCCTCC | 0.0691
TCGCACCA | -0.0357
GAGATTAC | 0.112
CGCACGGA | 0.324
CGGTCGCC | 0.174
CTACACCC | -0.144
GCGGCCAC | 0.0274
TATCCAGA | -0.101
CCGGGCCG | 0.369
AACAGAAC | -0.155
CACCTTAC | -0.154
AGGCTCTG | -0.409
TAGAAGGA | -0.137
ACACATGA | -0.296
ATAGCGTG | -0.16
ATTGATTC | 0.0803
AAATGGTG | -0.0138

Sequence | PBM E-score
TCAACTGA | -0.133
AGGATAGC | 0.00534
ACCGTCTG | -0.0873
ATAGGTGC | 0.00227
TCGTAGAA | -0.171
AGGCATAG | -0.15
CATTACAG | -0.191
CCCCGGCA | 0.318
CGAGATAA | 0.0471
CGCCATCA | -0.0985
GGGGTGTA | -0.09
CGGGTTAA | 0.297
AGCACCTA | -0.0928
CATGACGG | 0.0722
ACTGTATC | -0.13
AACGCACC | -0.0199
AAAAGGGG | -0.103
GGAAATAA | 0.19
ATCTTCGC | 0.0659
ATACAGTC | -0.18
ATGGAATG | 0.00386
ACGGCAAC | 0.00989
GATTATGC | 0.149
GATATAAA | -0.176
AAGAACCT | -0.157

Sequence | PBM E-score
CCCGAGCG | 0.292
CGTTGAGA | -0.133
ACAACTTG | -0.18
AGGCTTTC | -0.125
CCTAATGA | -0.2
ACTATTGG | -0.112
CTATGTCA | -0.183
ACACCACA | 0.0174
ACCCTTGC | -0.118
GTAATTAA | -0.0118
GGTATCTA | -0.0263
CTAACGTA | -0.1
AGAGTGAC | -0.192
ACGCTCTC | 0.0344
TCATATGA | 0.0312
AAGCAGCC | -0.118
GGAAACGA | -0.0536
AATGCCAT | 0.0253
AACCGGTT | 0.284
TCCGCCGA | 0.437
AGAATTAA | -0.114
CAGGTCAG | -0.0413
GCAGGTCA | -0.134
AACCGGGT | 0.244
ACACAGAA | -0.0876

Sequence | PBM E-score
AGAGGGAA | -0.257
CCGCAACC | 0.141
AATCGTTG | -0.0632
CGGCAGAG | -0.0128
AAGTCATG | -0.0146
CACTGAGA | -0.221
AAATGAGA | -0.187
ACACATTC | -0.0281
AAATAGGT | -0.221
GCGGACGA | 0.319
ACCTGAAG | -0.0876
AGCGCGTA | -0.109
AGTAAACT | -0.099
ATCCCGAA | 0.309
TAAATTGA | -0.138
AATGTTCT | -0.285
AGAGCATG | -0.29
TGCATACA | -0.078
CGGTACTA | 0.219
GTAGTCTA | -0.227
CTACTAAG | 0.0628
CAGGCTAA | -0.247

— the supplement of paper PMC3334620
